Experimental data taken from the BET-seq Pho4 binding data (Le et al. 2018).
The other results are listed elsewhere or left out. The energies were worked out here from pooled read counts, against the library average; single values are noisy.

biological target: T1, Pho4 (S. cerevisiae) (UniProt P07270); assay: relative binding free energy (BET-seq); higher = weaker binding; settings: reference: library average
T1 sequence: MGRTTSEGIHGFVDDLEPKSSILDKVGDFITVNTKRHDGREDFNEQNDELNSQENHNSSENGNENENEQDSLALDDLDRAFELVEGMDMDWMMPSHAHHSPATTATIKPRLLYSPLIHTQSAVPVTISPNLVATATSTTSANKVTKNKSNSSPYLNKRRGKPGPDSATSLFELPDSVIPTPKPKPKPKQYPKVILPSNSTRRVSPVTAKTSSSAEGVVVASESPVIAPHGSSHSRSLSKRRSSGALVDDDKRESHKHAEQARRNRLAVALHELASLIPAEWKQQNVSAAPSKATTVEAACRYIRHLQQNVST

Sequence	relative binding free energy [kcal/mol]
TCTTTCACGTGAAATT	0.44
TCCTTCACGTGTGGTG	0.37
TGGAGCACGTGTAGGT	-0.04
AGAAGCACGTGATGTT	0.08
ATGTGCACGTGGGGTA	-0.13
TTTAGCACGTGTGATT	0.02
GAGGTCACGTGGATCT	0.31
GGATGCACGTGGGTAC	-0.04
GACGCCACGTGTGTTG	0.06
CAATGCACGTGGTTTT	0
TATGGCACGTGTTTTT	-0.01
TGTGTCACGTGAGCGC	0.24
GTAGTCACGTGTTGGT	0.28
TGGATCACGTGGAGTG	0.09
TTTTTCACGTGTTATG	0.33
GGAGACACGTGGTTAT	0.02
GTATTCACGTGGCTGG	0.14
GGTGCCACGTGATTGT	0.14
GTAGACACGTGTAGGT	0.11
TTCTGCACGTGGTTAA	-0.17
TTTTACACGTGTTAGC	0.2
TATTGCACGTGTTCAG	-0.05
TGGCGCACGTGGAGTA	-0.12

Sequence	relative binding free energy [kcal/mol]
ATGGTCACGTGTGTGC	0.12
GGGAACACGTGGTTGG	-0.04
ATTATCACGTGAAATT	0.38
GGAAACACGTGGGTGA	-0.19
TGCGTCACGTGGGAAT	-0.05
TCGGGCACGTGAAAGG	0.24
AAGAGCACGTGGGCTC	-0.01
TCGATCACGTGTTGGT	0.21
GGGGGCACGTGGGAGA	-0.15
AAGTACACGTGTTGGG	-0.05
GGGCTCACGTGTGAAT	0.35
AATCTCACGTGGTTGG	0.24
TATCGCACGTGGGGGT	-0.22
CGGTGCACGTGTATGA	-0.07
AGAGACACGTGGTGCG	0.01
GGTAACACGTGTGTAT	0.09
GTGGGCACGTGAAGTC	0.33
GTATACACGTGGGGGC	0.08
TGGAGCACGTGTGAGG	-0.01
ATTAACACGTGGTTGG	-0.24
AGGATCACGTGTGGCA	0.3
GTTCCCACGTGTGTGG	-0.01
CCGTTCACGTGTGTTT	0.18

Sequence	relative binding free energy [kcal/mol]
GGTAACACGTGTTTCT	0.09
ATAACCACGTGGTGGT	-0.12
GGAAGCACGTGATTTG	0
ATCGTCACGTGTTTAG	0.12
ATGGTCACGTGCGGGG	-0.01
TTGGGCACGTGGAAGT	0.1
TTGTACACGTGTTATG	0.11
GTGATCACGTGATATA	0.39
CTGGGCACGTGTGACG	-0.01
ATGGGCACGTGATTGT	-0.04
TGAACCACGTGGTATG	-0.04
GTTGGCACGTGTGATG	-0.01
CGGTGCACGTGGATTG	0.05
GCGGGCACGTGCAGGG	-0.24
GTCTGCACGTGGTTGT	-0.07
GCGTACACGTGGTGGG	-0.04
ATGGTCACGTGTGTCG	0.22
CTTGGCACGTGGTGCA	-0.2
TGAGGCACGTGCGTGT	-0.16
CTATTCACGTGTATGG	0.16
TGGGCCACGTGGTGAA	-0.17
GGTGTCACGTGTTAGG	0.17
GAAGTCACGTGTAATT	0.29

Sequence	relative binding free energy [kcal/mol]
GGAAACACGTGTTGGG	-0.02
GCATGCACGTGGGGCG	-0.19
GAGATCACGTGATTTT	0.46
ATCGGCACGTGGAAGG	-0.02
AAGGTCACGTGGTCGA	0.1
ATGAACACGTGAATGT	0.36
TTTGCCACGTGGGTGA	-0.23
TATTACACGTGCTTTT	0
TAGATCACGTGAGTGT	0.32
GTGTACACGTGTGCTG	0.03
CTTCTCACGTGTTTGG	0.15
CAATGCACGTGTGAGG	0.07
GTAGGCACGTGGAGCG	-0.1
TGTGTCACGTGGGTAC	0.02
TGTTACACGTGCTGAG	0.18
TTGAACACGTGATTGG	0.16
AGGAGCACGTGTGTGA	-0.09
AATTACACGTGTGGTC	0.27
CGGTGCACGTGGAGTA	-0.09
TAACTCACGTGAGGGA	0.34
GTTAGCACGTGTTATC	-0.09
CCGAGCACGTGTGTTG	0.03
TGTCTCACGTGGGAAG	0.14

Sequence	relative binding free energy [kcal/mol]
TTTGCCACGTGTGGCT	-0.11
AAATGCACGTGATGCG	0.2
TATTTCACGTGGGGGC	0.24
AGGGGCACGTGGCGAG	-0.1
GGGTGCACGTGAGACA	0.29
TTTTTCACGTGGCTAG	0.16
GGTTCCACGTGGTGGC	0.04
GGGATCACGTGGGAAA	0.1
AGTTTCACGTGGGGGA	0.22
TTCGTCACGTGAGTAA	0.4
ATCTGCACGTGATTGT	0.11
TCTGTCACGTGTCTTT	0.04
GAAGGCACGTGTTGTT	-0.09
ATATGCACGTGGAGCG	-0.05
TTGGACACGTGATTGC	0.19
ATGGGCACGTGTTCTT	-0.02
GTGTACACGTGTATTT	0.04
TGTTGCACGTGGGTTC	-0.08
GCGTGCACGTGAGTGT	0.1
TGATTCACGTGTGTAC	0.24
TAAGGCACGTGGATGG	-0.08
TTATTCACGTGGCTTT	0.02
TTGCTCACGTGAATGG	0.33
